Read-outs that look alike come from different tables or passages of the source. These are yes or no findings as the source states them, for the method shown. Binding seen in cells or lysates may run through a third protein. Some results given as binding are weak or reduced against the parent protein; the word gives no strength. Where a sequence is shown, tags or fusion partners need not be part of it.

Sequences of proteins named here, by UniProt entry; tags and fusion partners are left off.
UniProt Q43125: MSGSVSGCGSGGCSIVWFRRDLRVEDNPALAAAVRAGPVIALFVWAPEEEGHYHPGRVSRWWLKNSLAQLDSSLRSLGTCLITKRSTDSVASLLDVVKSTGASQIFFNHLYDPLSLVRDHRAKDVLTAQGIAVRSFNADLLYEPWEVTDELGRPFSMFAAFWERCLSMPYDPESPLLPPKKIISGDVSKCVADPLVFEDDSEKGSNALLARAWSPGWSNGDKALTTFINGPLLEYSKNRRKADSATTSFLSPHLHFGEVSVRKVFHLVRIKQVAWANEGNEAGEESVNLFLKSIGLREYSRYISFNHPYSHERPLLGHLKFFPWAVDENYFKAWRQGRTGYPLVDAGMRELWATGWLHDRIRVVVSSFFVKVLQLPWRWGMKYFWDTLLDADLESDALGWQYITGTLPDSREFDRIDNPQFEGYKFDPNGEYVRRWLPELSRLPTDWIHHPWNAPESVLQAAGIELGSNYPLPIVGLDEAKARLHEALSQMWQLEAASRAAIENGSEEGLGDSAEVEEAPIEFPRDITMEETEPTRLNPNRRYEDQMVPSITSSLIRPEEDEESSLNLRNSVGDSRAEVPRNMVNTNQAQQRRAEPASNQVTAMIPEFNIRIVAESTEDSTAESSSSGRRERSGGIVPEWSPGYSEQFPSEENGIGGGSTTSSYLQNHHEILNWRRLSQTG
UniProt Q96524: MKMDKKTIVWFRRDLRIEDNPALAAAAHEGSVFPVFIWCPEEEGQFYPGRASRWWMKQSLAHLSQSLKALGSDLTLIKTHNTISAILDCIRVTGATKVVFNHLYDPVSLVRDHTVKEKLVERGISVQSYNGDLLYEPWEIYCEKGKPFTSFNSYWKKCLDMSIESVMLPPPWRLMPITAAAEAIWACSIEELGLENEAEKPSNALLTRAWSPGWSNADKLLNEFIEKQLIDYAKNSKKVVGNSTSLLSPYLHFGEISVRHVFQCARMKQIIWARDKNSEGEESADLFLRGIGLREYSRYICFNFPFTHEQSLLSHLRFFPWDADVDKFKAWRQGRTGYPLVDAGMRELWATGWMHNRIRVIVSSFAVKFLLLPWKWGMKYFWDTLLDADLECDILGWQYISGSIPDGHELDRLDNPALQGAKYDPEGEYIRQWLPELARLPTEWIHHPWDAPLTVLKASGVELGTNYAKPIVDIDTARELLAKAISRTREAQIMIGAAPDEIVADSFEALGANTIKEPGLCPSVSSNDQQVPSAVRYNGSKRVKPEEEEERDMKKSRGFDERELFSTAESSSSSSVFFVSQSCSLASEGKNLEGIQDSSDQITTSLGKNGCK

From paper PMC9535003 come the findings set out here.

Experiment [1] addresses T1, PRR9-NanoLucN (Arabidopsis) (UniProt Q8L500).
T1 sequence: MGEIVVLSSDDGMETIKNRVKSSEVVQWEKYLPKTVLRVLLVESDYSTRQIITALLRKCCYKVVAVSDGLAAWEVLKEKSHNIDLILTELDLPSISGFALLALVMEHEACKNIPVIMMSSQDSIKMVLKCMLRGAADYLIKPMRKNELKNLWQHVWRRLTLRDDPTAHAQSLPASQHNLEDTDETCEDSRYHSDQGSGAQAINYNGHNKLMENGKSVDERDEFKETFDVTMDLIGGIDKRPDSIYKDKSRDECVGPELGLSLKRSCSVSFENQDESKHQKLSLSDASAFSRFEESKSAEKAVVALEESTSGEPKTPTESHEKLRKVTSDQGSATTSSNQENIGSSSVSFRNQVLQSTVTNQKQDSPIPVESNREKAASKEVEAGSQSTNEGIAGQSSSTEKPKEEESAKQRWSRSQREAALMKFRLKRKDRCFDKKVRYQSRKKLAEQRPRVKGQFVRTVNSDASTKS
As to the kind of experiment: split reporter; split nano-luciferase complementation: NanoLucN and NanoLucC fusions co-expressed in N. benthamiana leaves for 3 days; furimazine, CCD camera.

The target in the next experiment is T2, PRR9-nYFP (Arabidopsis) (UniProt Q8L500).
T2 sequence: T1 sequence
As to the kind of experiment: split reporter; BiFC: nYFP and cYFP fusions and H2B-mCherry co-infiltrated (5:5:1) into N. benthamiana leaves for 3 days; confocal microscopy.

Experiment [2] concerns the target T3, PRR9-GFP (Arabidopsis) (UniProt Q8L500).
T3 sequence: T1 sequence
As to the kind of experiment: co-IP; competitive co-IP: PRR9-GFP immunoprecipitated, TPL-FLAG or PPK1-Flag co-expressed with or without CRY2-HA; blots with GFP, Flag and HA antibodies.

The target in the next experiment is T4, PRR9-MBP (Arabidopsis) (UniProt Q8L500).
T4 sequence: T1 sequence
As to the kind of experiment: pull-down; recombinant PRR9-MBP or MBP resin incubated with extracts of tobacco leaves or Arabidopsis seedlings, 4 C, 2 h; pulled-down proteins detected with GFP antibody; GFP-CRY2 seedlings exposed to dark, red or blue light (10 umol m^-2 s^-1) for 10 min; only the target purified.

Experiment [3] deals with T5, PRR9-GFP (CsVMVpro:PRR9-GFP transgenic line) (Arabidopsis) (UniProt Q8L500).
T5 sequence: T1 sequence
The experiment is described as follows: co-IP; etiolated seedlings of the Arabidopsis CsVMVpro:PRR9-GFP line, with blue light; GFP-Trap beads; endogenous CRY2 detected.

The target of experiment [4] is CRY1 (GFP-tagged) (Arabidopsis) (UniProt Q43125). As to the kind of experiment: co-IP; co-expression in N. benthamiana leaves, 3 days; GFP-Trap beads, 4 C, 1 h, 150 mM NaCl, 0.2% NP-40; blots with GFP and HA antibodies; for CRY2-GFP and PRR9-HA also after 10 min dark, red or blue light (10 umol m^-2 s^-1).
The next experiment deals with CRY2-GFP (Arabidopsis) (UniProt Q96524). The description is as above.
The target of experiment [5] is T3, PRR9-GFP (Arabidopsis). The experiment is described as follows: co-IP; competitive co-IP: PRR9-GFP immunoprecipitated, TPL-FLAG or PPK1-Flag co-expressed with or without CRY2-HA; blots with GFP, Flag and HA antibodies. This is another data set of the same source.

As to “CRY1-NanoLucC (from UniProt Q43125 1-681)”, in experiment [1], the binding result is “no binding”. As to CRY1-cYFP (from UniProt Q43125 1-681), in the experiment with PRR9-nYFP (Arabidopsis), the binding result is listed as “no binding”. With CRY2-HA (from UniProt Q96524 1-612), in the experiment with PRR9-GFP (Arabidopsis) [2], the binding entry is reported as “binds”.

“CRY2-NanoLucC (from UniProt Q96524 1-612)”: in experiment [1], the binding result is recorded as “binds”. With CRY2-cYFP (from UniProt Q96524 1-612), in the experiment with PRR9-nYFP (Arabidopsis), the binding entry is on record as “binds”. On to GFP-CRY2 (from UniProt Q96524 1-612), for which, in the experiment with PRR9-MBP (Arabidopsis), the binding result was “binds”. “endogenous CRY2 (from UniProt Q96524 1-612)”: the binding entry in experiment [3] was “binds”.

B1: PRR9-HA (protein, UniProt Q8L500 1-468)
chain: T1 sequence
As for B1, the values for the binding entry (in experiment [4]; with CRY2-GFP (Arabidopsis)) were “no binding” and “binds”, respectively.

B2: TPL-FLAG (protein, UniProt Q94AI7 1-1131)
chain: MSSLSRELVFLILQFLDEEKFKETVHKLEQESGFFFNMKYFEDEVHNGNWDEVEKYLSGFTKVDDNRYSMKIFFEIRKQKYLEALDKHDRPKAVDILVKDLKVFSTFNEELFKEITQLLTLENFRENEQLSKYGDTKSARAIMLVELKKLIEANPLFRDKLQFPTLRNSRLRTLINQSLNWQHQLCKNPRPNPDIKTLFVDHSCGPPNGARAPSPVNNPLLGGIPKAGGFPPLGAHGPFQPTASPVPTPLAGWMSSPSSVPHPAVSAGAIALGGPSIPAALKHPRTPPTNASLDYPSADSEHVSKRTRPMGISDEVNLGVNMLPMSFSGQAHGHSPAFKAPDDLPKTVARTLSQGSSPMSMDFHPIKQTLLLVGTNVGDIGLWEVGSRERLVQKTFKVWDLSKCSMPLQAALVKEPVVSVNRVIWSPDGSLFGVAYSRHIVQLYSYHGGEDMRQHLEIDAHVGGVNDISFSTPNKQLCVITCGDDKTIKVWDAATGVKRHTFEGHEAPVYSVCPHYKENIQFIFSTALDGKIKAWLYDNMGSRVDYDAPGRWCTTMAYSADGTRLFSCGTSKDGESFIVEWNESEGAVKRTYQGFHKRSLGVVQFDTTKNRYLAAGDDFSIKFWDMDAVQLLTAIDGDGGLQASPRIRFNKEGSLLAVSGNENVIKIMANSDGLRLLHTFENISSESSKPAINSIAAAAAAAATSAGHADRSANVVSIQGMNGDSRNMVDVKPVITEESNDKSKIWKLTEVSEPSQCRSLRLPENLRVAKISRLIFTNSGNAILALASNAIHLLWKWQRNERNATGKATASLPPQQWQPASGILMTNDVAETNPEEAVPCFALSKNDSYVMSASGGKISLFNMMTFKTMATFMPPPPAATFLAFHPQDNNIIAIGMDDSTIQIYNVRVDEVKSKLKGHSKRITGLAFSNVLNVLVSSGADAQLCVWNTDGWEKQRSKVLPLPQGRPNSAPSDTRVQFHQDQAHFLVVHETQLAIYETTKLECMKQWAVRESLAPITHATFSCDSQLVYASFMDATVCVFSSANLRLRCRVNPSAYLPASLSNSNVHPLVIAAHPQEPNMFAVGLSDGGVHIFEPLESEGKWGVAPPAENGSASGAPTAPSVGASASDQPQR
As for B2, in the experiment with PRR9-GFP (Arabidopsis) [5], the binding entry is given as “binds”.
